{"source": "PubChem BioAssay AID411", "about": "(National Center for Advancing Translational Sciences (NCATS), 2006)", "note": "The campaign covered roughly 72,000 compounds. About 1,600 (2.2%) were called active. Calls follow the shape of the dose curve; as a rule, active = well fitted inhibition curve with a large enough effect; inconclusive = small, poorly fitted or top-dose-only effect; inactive = flat fitted curve, though single readings scatter. The list shows a part of the results, in another mix than the full data. % is scaled to controls: 0 for no effect and ±100 for the full control effect; potency is read from the fitted curve at half-maximal effect."}
{"biological_target": "Luciferin 4-monooxygenase (Photinus pyralis) (UniProt P08659)", "sequence (P08659 whole entry, looked up)": "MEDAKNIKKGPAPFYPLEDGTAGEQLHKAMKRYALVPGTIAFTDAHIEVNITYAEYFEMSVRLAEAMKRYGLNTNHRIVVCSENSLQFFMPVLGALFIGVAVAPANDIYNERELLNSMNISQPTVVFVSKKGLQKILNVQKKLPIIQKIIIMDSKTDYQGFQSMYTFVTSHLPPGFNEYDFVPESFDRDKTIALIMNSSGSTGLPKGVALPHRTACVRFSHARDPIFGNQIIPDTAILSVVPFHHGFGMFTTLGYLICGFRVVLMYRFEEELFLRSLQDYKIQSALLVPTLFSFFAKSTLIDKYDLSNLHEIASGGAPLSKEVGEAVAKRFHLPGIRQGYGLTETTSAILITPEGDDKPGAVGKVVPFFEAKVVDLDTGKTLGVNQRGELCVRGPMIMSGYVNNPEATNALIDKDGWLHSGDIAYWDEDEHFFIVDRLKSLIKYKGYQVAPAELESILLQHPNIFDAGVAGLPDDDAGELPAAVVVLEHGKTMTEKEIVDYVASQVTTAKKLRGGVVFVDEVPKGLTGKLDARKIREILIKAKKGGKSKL", "assay": "qHTS Assay for Inhibitors of Firefly Luciferase; also: nearly all actives have a fitted effect of over 40% in size", "conditions": "purified firefly luciferase, luminescence, 8 min; series mostly up to 25.5 µM; activity change, negative = inhibition: at the top concentration", "protocol": "To aid in the interpretation of high-throughput screening (HTS) results derived from luciferase-based assays, we used quantitative HTS, an approach that defines the concentration-response behavior of each library sample, to profile the ATP-dependent luciferase from Photinus pyralis against more than 72 000 samples. Luciferase (PKLight, Cambrex Corporation) was assayed for its ability to generate light using ATP and luciferin as substrates. The ATP concentration in the assay (10 uM) was within the linear range of enzyme activity for the assay conditions used. See following reference for further details: [1] Auld DS, Southall NT, Jadhav A, Johnson RL, Diller DJ, Simeonov A, Austin CP, Inglese J. Characterization of chemical libraries for luciferase inhibitory activity. J Med Chem. 2008 Apr 24;51(8):2372-86. Auld DS, Zhang YQ, Southall NT, Rai G, Landsman M, Maclure J, Langevin D, Thomas CJ, Austin CP, Inglese J. A Basis for Reduced Chemical Library Inhibition of Firefly Luciferase Obtained from Directed Evolution. J. Med. Chem., 2009, 52 (5), pp 1450#1458 [3] Auld DS, Thorne N, Nguyen DT, Inglese J. A specific mechanism for nonspecific activation in reporter-gene assays. ACS Chem Biol. 2008 Aug 15;3(8):463-70. Auld DS, Thorne N, Maguire WF, Inglese J. Mechanism of PTC124 activity in cell-based luciferase assays of nonsense codon suppression. Proc Natl Acad Sci U S A. 2009 Mar 3;106(9):3585-90. Inglese J, Auld DS, Jadhav A, Johnson RL, Simeonov A, Yasgar A, Zheng W, Austin CP. Quantitative high-throughput screening: a titration-based approach that efficiently identifies biological activities in large chemical libraries. Proc Natl Acad Sci U S A. 2006 Aug 1;103(31):11473-8.\nFour uL of substrate mix (final concentration, 50 mM imidazole pH 7.2, 50 mM KCl, 7 mM MgCl2, 10 uM ATP, 0.01% Tween 20, 0.05% BSA) was dispensed into white 1536 well plates. Twenty-three nL of compound was delivered by a pin tool and 2 uL of luciferase detector mix (PKLight, Cambrex) was added. Following 8-minute incubation at ambient temperature, luminescence was measured by a ViewLux (Perkin Elmer) at 5 seconds exposure/plate."}
{"smiles": "NNC(=O)c1ccncc1", "activity change, negative = inhibition": "inactive: -20.8%"}
{"smiles": "Clc1ccc2c(c1)[C@H]1OCC[C@H]1[C@@H](c1ccco1)N2", "activity change, negative = inhibition": "inactive: -6.87% [at 57.1 µM]"}
{"smiles": "CC(=O)O[C@H]1C(=O)[C@]2(C)[C@H]([C@H](OC(=O)c3ccccc3)[C@]3(O)C[C@H](OC(=O)[C@H](O)[C@@H](NC(=O)c4ccccc4)c4ccccc4)C(C)=C1C3(C)C)[C@]1(OC(C)=O)CO[C@@H]1C[C@@H]2O", "activity change, negative = inhibition": "inactive: 0.287%"}
{"smiles": "CCOC(=O)c1cnc(-n2nc(C)cc2C)nc1N(C)C", "Potency": "active: 12.6 µM"}
{"smiles": "O=c1c(O)c(-c2cc(O)c(O)c(O)c2)oc2cc(O)cc(O)c12", "Potency": "inactive"}
{"smiles": "COc1ccccc1-c1nc(-c2ccc(Br)cc2)no1", "Potency": "active: 12.6 µM"}
{"smiles": "Oc1ccccc1-c1nnc(COc2ccc(Cl)cc2Cl)o1", "Potency": "active: 12.6 µM"}
